Results: the supplement of paper PMC11417369
The other results are listed elsewhere or left out.

Each sequence was assayed on PfSIP2 AP2 domain 1 (GST-tagged) (assay: gcPBM binding intensity (ln(normalized median fluorescence intensity)); higher = stronger DNA binding).
Summary of the method: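 Probes on an Agilent 4 × 180k array were primer-extended, double-stranded and 36 bp long, taken from intergenic genomic regions, with negative controls added. GST-tagged P. falciparum DNA-binding domains from E. coli, about 25 μg on average, were applied to the array for 1 h in 1× PBS containing 1% milk, 0.2 mg/ml BSA, 0.5% salmon testes DNA and 0.03% Triton X-100. Binding intensity, obtained after Alexa488 anti-GST antibody detection and a 488 nm scan, is the highest Masliner-normalised natural-log median intensity across replicate spots of either probe orientation.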

| Sequence | gcPBM binding intensity (ln) |
| --- | --- |
| TATATATATATGTATACACACATACAAATATGTAAA [CACACA_site9238] | 8.7 |
| TGTTAATTAAAGGACTGTACACTAATAATTCTATAA [XGTACX_site5195] | 7.03 |
| TCATATGTTTCATGTTGTACATTGAAAGTTTGGCTA [XGTACX_site3202] | 6.84 |
| GTTCTAATATATTGCACACGTAAAAATATAGGTAAT [CACACA_site886] | 7.42 |
| AAATATGTACATATTATATATATATAATATATATTG [TGCATGCA_negctrl_site438] | 7.02 |
| AAAAAAAAAATATATATATATATATATATATAATTT [GTGCAC_negctrl_site32] | 7.7 |
| AATAAATATAGATTCACACACAAACATATATAAATA [CACACA_site7814] | 6.88 |
| AAGAAAAAAATTTATACAAGAATTTTTTATTATTAA [TGCATGCA_negctrl_site587] | 6.81 |
| TAATTGTACGCCAATACACACAGAATTAGAATGTAG [CACACA_site102] | 7.57 |
| ATAAATAAATGGTGTTGTACTCTATTATATATATAT [XGTACX_site7835] | 8.66 |
| ATTCACTAAAAAATTGCATGCAATAAATTTTTTTTT [TGCATGCA_site962] | 6.52 |
| TTTTATTGTTGTTATACACACCATATAAAATATTTC [CACACA_site4983] | 6.94 |
| AATTGATTTATATATTGTACATATAAATTTATGTAT [XGTACX_site7785] | 6.84 |
| ATATTTATCTTTTTATGTACATATGCCCCTTTTCTG [XGTACX_site673] | 7.39 |
| AAGAAAATTAAATTAACACACATAAATATATATATA [CACACA_site1664] | 8.96 |
| GAGTTATTTCTTATTTAAGCATTCTACATATATATA [CACACA_negctrl_site239] | 7.2 |
| ATTTTACATATTTGCACACATATATTTAAATACATA [CACACA_site4627] | 7.27 |
| GTCCTTATGGATGATAAATTATTTTAAATATTCTAT [XGTACX_negctrl_site200] | 6.76 |
| TCTTGGTTATTAAAAAAAAAAAAATATATTTTTCCT [TGCATGCA_negctrl_site445] | 6.83 |
| GGGAAAATAAATAAAGTGCAGATATTAAAAGTTGTA | 8.04 |
| TTGCATATTTCTAATTGTACATTATTTTATTTTATA [XGTACX_site8451] | 6.96 |
| AATAAAAAATATATGAGTACTAAATTGTTTTCTTAA [XGTACX_site8573] | 6.83 |

| Sequence | gcPBM binding intensity (ln) |
| --- | --- |
| CTCAACGATAGAGAAACATGCAAGTATAAGCAACTA [TGCATGCA_site771] | 6.8 |
| AAAAAAATAACAAAATGTATACAATATAACAAAAAT [GTGCAC_negctrl_site512] | 7.13 |
| AACATATACCCAGGTACATGCAAATATATATATTAT [TGCATGCA_site878] | 6.95 |
| TTCTTTCTTCAAAAGTGTACCAAATGTTAGAAAGGT [XGTACX_site4353] | 7.65 |
| TTTAAAAATTAATTCTGTACACATTTTTATTTTATT [XGTACX_site8] | 7.07 |
| ATATATATATATATGTGTACACAACAAAATAAAAAA [XGTACX_site7378] | 9.19 |
| TTTATTTATTATTAAAGTACTAAATCATATTATTAT [XGTACX_site992] | 6.88 |
| TTTTCTTTTTTCTGTTGTACTAAAAATAATTTTGTA [XGTACX_site5171] | 6.98 |
| CCACTAATAAATATTACACACATATATATATATATT [CACACA_site3128] | 7.37 |
| TATTTATATATTATGTGTCCACATGTAAGCTATCTT [XGTACX_site3887] | 6.87 |
| TATACATTATCTTATGCATGCGCATCTGCATATAAA [TGCATGCA_site266] | 7 |
| ATTCATTTCTATTTTACACACAATAAGTAACTTAAT [CACACA_site2850] | 7.24 |
| CTCATCCTTACATACACACACATATATATATATATA [CACACA_site103] | 9.67 |
| ATATTTAAATCGAAGGTGCGTATTTCCTTTTTTTTT [GTGCAC_site9632] | 9.41 |
| ATATATACATATAACACACACATATATATATATATA [CACACA_site2575] | 9.25 |
| AGTATAAATAAATCATAAACATATATATATATATAT [GTGCAC_negctrl_site356] | 9.25 |
| TCCTTAAAAATCTAAAAAGAAAAAAACATATATTTT [GTGCAC_negctrl_site123] | 6.72 |
| TATACCTATAAATACACACACATATATAAATATGTA [CACACA_site6625] | 7.02 |
| ATTATTATATATATAACACACATAATTATATACTTA [CACACA_site1563] | 7.21 |
| AAATAAAAACCATATCGTACAAAAATTTTTGTATTT [XGTACX_site7497] | 6.86 |
| ATATATATATATATATGTACTTAAAAATTTGTTTTG [XGTACX_site1514] | 9.1 |
| AAGTCAATTTTTTTTTTTTTTTTTTAACTTATTAAT [TGCATGCA_negctrl_site14] | 6.56 |

| Sequence | gcPBM binding intensity (ln) |
| --- | --- |
| GATCACTGAATAAAGGCACACATCTGACTAATTTTT [CACACA_site66] | 6.83 |
| AATGTATATAATATTAATATGTAAATATATAATCAA [CACACA_negctrl_site1683] | 6.74 |
| TTAAAAAGTGCGTAGTGTACTAATATAAATAATACA [XGTACX_site2922] | 7.74 |
| TGAATAAATATATATACACACCCATATATATATATA [CACACA_site8833] | 9.46 |
| GTTGTCCCCCTTTCTATGCACACTTTAAATTATTCA [CACACA_site52] | 8.38 |
| AATTTATAAGAATATTGTACGTTTAATATATTGTAA [XGTACX_site7553] | 7.27 |
| ATTCTAATAGATAGTAGTACCTATAAGTTTTCTTTT [XGTACX_site2315] | 6.79 |
| AAAATAATAATTAAATAATAGTAAATGAAAAATAAA [CACACA_negctrl_site57] | 6.91 |
| AAGTTTATTATATATAAATTATTATATATATATATA [CACACA_negctrl_site189] | 9.27 |
| TATGTGTTCAGTATTGCACACACACTCCAAAATAAA [CACACA_site8018] | 6.93 |
| ACTTCATTTTATAAGTGTACATAATTTGTTTATATA [XGTACX_site5453] | 7.26 |
| ATAAATACTAGGCACACACACATATAGATTTATATA [CACACA_site7064] | 7.14 |
| ATATCAACTGAATTGTATAGGCGATAAAAGAAAAAA [CACACA_negctrl_site1334] | 6.73 |
| TTTATACATACATTCGTGCACATACGTATAACATAT | 10.1 |
| ATATAAATATATGTATGTACACATTTTTTTTTTTTT [XGTACX_site247] | 7.11 |
| AGAATTATAAATTATAGTACATAAAATTTTGATGTA [XGTACX_site5726] | 6.97 |
| AAACGATCTCGATGTTGTACACATTTATATAGAAAC [XGTACX_site4373] | 7.13 |
| TACTAAAATATATATATGCAACATGAGATATTCAAC [XGTACX_negctrl_site283] | 7.17 |
| CATGTGTGTATAATTTGTACATATACATAATAAATA [XGTACX_site2418] | 6.92 |
| CTAAACTAAACAAACTGTACACAAATAAAACAATAA [XGTACX_site8880] | 7.4 |
| TCTCATAGGAAACACACACACACACCCACATATATA [CACACA_site1738] | 7.13 |
| ATATATTTTTTAAATTTAAAAATTATAAAATTTATA [TGCATGCA_negctrl_site36] | 6.96 |

| Sequence | gcPBM binding intensity (ln) |
| --- | --- |
| ATATATGTGCGCGTATGTACATAAAATAAATATACA [XGTACX_site2689] | 7.71 |
| TAAATAAAAAAAAAAAGTACATACATACAAACATAT [XGTACX_site4427] | 7.08 |
| TGGGTCTCTAACTGGTGTACTATTTACATATTATAC [XGTACX_site8593] | 7.03 |
| TATGATTTTAACAACTGTACAATATAATAAATCTAA [XGTACX_site2198] | 6.86 |
| ATATATTTTTAATTACGTACTTAATAATATATACAA [XGTACX_site3285] | 7.17 |
| TAAAAGAAAAATTAGTGTACCAATATTAACATAAAA [XGTACX_site5474] | 6.75 |
| ATTAAAAGAACCAAGTGTACATTCTATATATAAAAA [XGTACX_site4260] | 6.97 |
| TATACAATATATTTTGGTACACAAACAAAAAAATAT [XGTACX_site2522] | 7.2 |
| GAAAAAGACAAAAGGTGTACAATATGAAATATATAT [XGTACX_site373] | 7.37 |
| GTTCACCAAAGGTAACGTACACAAACATATATATAT [XGTACX_site1073] | 8.91 |
| ATATTATGATCTATTTTTATATTCTATTTGATAAAT [CACACA_negctrl_site1070] | 6.97 |
| TAATTCTAAATAAATGTACACACAAAAATAAATGTA [CACACA_site8509] | 7.02 |
| TATATATATATTATATGTACATAAATATTTATACTC [XGTACX_site114] | 8.59 |
| TTATAAAATTTTCTTCTATATTTTAATTATTCTCAT [TGCATGCA_negctrl_site571] | 6.79 |
| TTGATAAAATGGGAGAAATTAAAAAGGAAAAAAAAA [CACACA_negctrl_site1279] | 6.73 |
| CTATTTTATATGTGCACACATATACACCCACAAATA [CACACA_site1131] | 9.31 |
| TTAAATATAATTATATGTACATATTTATGTATATAT [XGTACX_site5811] | 7.01 |
| AGATTGTATTTATGTACACACATTTTTGGAATATGA [CACACA_site1340] | 7.2 |
| TTGATTAAAATTAGTACACACAAAATACATGCGGGG [CACACA_site5284] | 7.5 |
| AATTTACAAAAAAGAAAAAAAAAAAAAAAGATACTT [CACACA_negctrl_site1434] | 6.7 |
| ATATGCACTCATTGTGCACACGCATATTACGAAAAG [CACACA_site2637] | 11 |
